# Among all 310,000 compounds or so, about 14,000 (4.5%) showed an effect of 50% or more. The effect is printed as a negative number. The list shows a part of the results.
# Molecular target: human ether-à-go-go-related gene (hERG) potassium channel (human, UniProt Q12809)
# Experiment: primary screen, population patch clamp on CHO cells stably expressing hERG
# 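Further: peak tail current of the secondary pulse compared with the same well before compound.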
# Sequence of human ether-à-go-go-related gene (hERG) potassium channel (Q12809 whole entry, looked up): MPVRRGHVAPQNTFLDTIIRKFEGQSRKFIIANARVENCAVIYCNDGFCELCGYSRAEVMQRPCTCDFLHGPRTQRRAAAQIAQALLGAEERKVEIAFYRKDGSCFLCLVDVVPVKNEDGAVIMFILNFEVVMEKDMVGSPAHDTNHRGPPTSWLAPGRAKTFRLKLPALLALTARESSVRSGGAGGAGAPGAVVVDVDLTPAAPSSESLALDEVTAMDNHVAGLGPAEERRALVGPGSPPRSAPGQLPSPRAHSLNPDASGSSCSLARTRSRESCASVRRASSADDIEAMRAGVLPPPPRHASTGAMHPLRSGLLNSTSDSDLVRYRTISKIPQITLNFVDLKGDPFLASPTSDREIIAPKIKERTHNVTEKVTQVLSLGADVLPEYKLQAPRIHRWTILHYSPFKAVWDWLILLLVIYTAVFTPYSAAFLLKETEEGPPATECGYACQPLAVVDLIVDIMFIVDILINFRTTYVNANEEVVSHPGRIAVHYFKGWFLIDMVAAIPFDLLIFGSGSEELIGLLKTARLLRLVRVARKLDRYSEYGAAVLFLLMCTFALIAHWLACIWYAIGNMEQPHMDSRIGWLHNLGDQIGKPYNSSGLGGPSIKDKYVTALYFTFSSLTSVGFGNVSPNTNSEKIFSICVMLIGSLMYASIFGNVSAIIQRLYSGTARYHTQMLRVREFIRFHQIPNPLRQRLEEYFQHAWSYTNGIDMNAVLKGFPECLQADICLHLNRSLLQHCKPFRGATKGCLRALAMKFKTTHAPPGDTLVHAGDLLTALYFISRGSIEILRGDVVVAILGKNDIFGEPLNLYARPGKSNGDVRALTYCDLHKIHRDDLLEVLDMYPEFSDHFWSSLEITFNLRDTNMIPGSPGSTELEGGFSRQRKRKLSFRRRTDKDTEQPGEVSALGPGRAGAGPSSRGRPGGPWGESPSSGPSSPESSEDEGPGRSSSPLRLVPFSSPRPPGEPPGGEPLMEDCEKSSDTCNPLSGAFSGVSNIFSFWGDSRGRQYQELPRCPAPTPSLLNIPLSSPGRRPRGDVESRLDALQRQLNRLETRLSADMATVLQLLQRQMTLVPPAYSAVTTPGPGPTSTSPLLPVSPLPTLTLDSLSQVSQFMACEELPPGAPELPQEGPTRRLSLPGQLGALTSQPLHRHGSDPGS
row,Compound,"hERG current change (%, negative = inhibition) at 10uM"
1,CCOC(=O)C1CCCN(CC(=O)Nc2c(C(=O)OC)[nH]c3ccc(C)cc23)C1 (centres unmarked),-36.1%
2,O=C1CN(C(=O)CSc2nncn2-c2ccccc2)c2ccccc2N1,25.4%
3,O=[N+]([O-])O[C@H]1CO[C@H]2[C@@H]1OC[C@H]2O[N+](=O)[O-],-0.978%
4,Cc1ccc2cc(CNC(C)(C)C)c(=O)[nH]c2c1,-19%
5,O=C(Nc1cccnc1)c1cccc(S(=O)(=O)N2CCc3ccccc32)c1,11%
6,O=C(N/N=C/c1cccc([N+](=O)[O-])c1)c1ccc2nc[nH]c2c1,13.5%
7,CCN1C(=O)c2ccccc2Sc2ccc(C(=O)O)cc21,10.3%
8,COc1ccc(C(=O)COC(=O)C2CCCN2C(=O)C23CC4CC(CC(C4)C2)C3)cc1 (centres unmarked),2.11%
9,O=C(CNc1ccccc1)Nc1ccc(F)cc1,3.4%
10,COc1ccc(-n2nc(C(=O)NCC(=O)N3CCC(C(N)=O)CC3)c3ccccc3c2=O)cc1,9.36%
11,CC(=O)Nc1ccc(NC(=O)CNC(=O)COc2ccccc2)cc1,15.8%
12,COC(=O)C1=C(C)NC(=O)NC1/C=C/c1ccccc1 (centres unmarked),-13.5%
13,CC(=O)N1CCc2cc(S(=O)(=O)CCC(=O)NCc3ccc4c(c3)OCO4)ccc21,-3.72%
14,COc1cc(SC)ccc1C(=O)Nc1ccncc1,-26.2%
15,C#CCNC(=O)C1=C[C@H](C(C)(C)C)C[C@H](OCCCCO)O1,-0.801%
16,Cc1ccc(CNC(=O)Nc2cccc(C)c2)cc1,16.3%
17,COc1cc(C=O)ccc1OCC(=O)Nc1ccc2c(c1)OCO2,-5.05%
18,O=C(O)Cc1ccc(O)cc1,17.1%
19,Cc1cc(C)c(C#N)c(SCc2ccc(C(=O)O)cc2)n1,-5.29%
20,COc1ccccc1CNC(=O)c1cc(-c2ccccc2C)nn1CC1CC(c2cccnc2)=NO1 (centres unmarked),-2.89%
21,O=C(CSc1nc2[nH]c(=O)cc(O)c2s1)Nc1cc(Cl)cc(Cl)c1,-4.57%
22,Cc1ccc(C)c(N2CCN(C(=O)c3ccc4nc(-c5ccco5)c(-c5ccco5)nc4c3)CC2)c1,21.1%

row,Compound,"hERG current change (%, negative = inhibition) at 10uM"
1,S=C(NCc1ccc2c(c1)OCO2)Nc1ccc(-c2nc3ccccc3[nH]2)cc1,-0.463%
2,Oc1[nH]c2ccccc2c1N=Nc1ccc(C(F)(F)F)cn1,2.64%
3,O=C(Cc1ccccc1F)Nc1nc(-c2ccc(F)c(F)c2)cs1,0.418%
4,CCOC(=O)CSc1nc2ccccc2c(=O)n1Cc1ccco1,-18.1%
5,CN1CCN(c2ncnc3c2cnn3-c2ccc(Cl)cc2)CC1,-37.7%
6,CCC1CCC(C(=O)NC(C(=O)NCCc2ccc(S(N)(=O)=O)cc2)C(C)C)CC1 (centres unmarked),16.6%
7,Cc1ccc(N(C(=O)CCC(=O)Nc2ccccn2)C(C(=O)NC(C)C)c2ccc(F)cc2)cc1 (centres unmarked),21.4%
8,COc1ccc(C(=O)NCC(C)C)c(OC)c1,-4.71%
9,COc1ccc(-c2cc(C#N)nc(NN)n2)cc1,2.26%
10,O=C(Nc1nc2ccccc2n1Cc1ccccc1)c1ccco1,20.2%
11,CNc1c(NS(=O)(=O)c2ccc(OC)c(Cl)c2)c(=O)oc2ccccc12,11.5%
12,COc1ccc2c(c1)CCN=C2Cc1ccc(OC)c(OC)c1.Cl,-26.4%
13,CCCCc1nc(SCC(=O)Nc2cccc(Cl)c2)n[nH]1,-4.4%
14,CCOC(=O)CCCOC(=O)c1ccc(S(=O)(=O)N(C)C)cc1,-2.65%
15,CC(=O)Nc1nc(-c2ccc3ccccc3c2)cs1,5.97%
16,O=c1[nH]c2ccccc2c2ccccc12,20.4%
17,Cc1ccc(NC(=O)COn2nnc3ccc(S(=O)(=O)N(C)C)cc32)cc1F,-17%
18,COc1ccc(CNC(=O)CSc2nc3nc(C)cc(C)n3n2)cc1,2.92%
19,O=C(OCC(CO)OC(CO)n1ccc(=O)[nH]c1=O)c1ccccc1 (centres unmarked),11.4%
20,O=C(CN1CCN(c2ncc(C(F)(F)F)cc2Cl)CC1)Nc1ccc2c(c1)OCO2,-37.7%
21,Cc1ccccc1-n1nnnc1SCC(=O)c1c(N)n(C)c(=O)n(C)c1=O,0.614%
22,CC(C)CC(OC(=O)c1nsc(Cl)c1Cl)C(=O)NC1CCCC1 (centres unmarked),13.9%
